{
  "source": "the supplement of paper PMC9446081",
  "note": "The campaign covered roughly 39,000 compounds. About 220 (0.56%) showed activity. The list shows a part of the results.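 Note: static incubation at 37 °C against the wild-type strain, values averaged over two biological replicates.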",
  "data": [
    {"system": "Escherichia coli K-12 BW25113", "assay": "relative growth (OD600 normalised to plate interquartile mean) (fraction); higher = less growth inhibition, active = 0.2 or less", "conditions": "50 µM; LB; incubation time: overnight (16-24 h)", "values": [
      {"compound": "Cc1ccc(S(=O)(=O)Nc2ccc3c(c2)C(=O)N([C@H](C)CO)C[C@H](C)[C@@H](CN(C)CC2CC2)O3)cc1", "relative growth": "inactive: 1"},
      {"compound": "C[C@H](CO)N1C[C@H](C)[C@@H](CN(C)C(=O)C2CCCCC2)Oc2cc(C#CC3CC3)ccc2S1(=O)=O", "relative growth": "inactive: 1.03"},
      {"compound": "C[C@H](CO)N1C[C@H](C)[C@@H](CN(C)S(=O)(=O)c2cn(C)cn2)OCc2ccccc2-c2c(n(C)c3ccccc23)C1=O", "relative growth": "inactive: 1.01"},
      {"compound": "C[C@@H]1CN([C@H](C)CO)S(=O)(=O)c2ccc(C3=CCCCC3)cc2O[C@@H]1CN(C)Cc1cncnc1", "relative growth": "inactive: 0.901"},
      {"compound": "CNS(=O)(=O)c1cccs1", "relative growth": "inactive: 1.01"},
      {"compound": "Cc1ccc(S(=O)(=O)Nc2cccc3c2O[C@@H](CN(C)CC2CC2)[C@@H](C)CN([C@@H](C)CO)C3=O)cc1", "relative growth": "inactive: 1.01"},
      {"compound": "CC1=C(C(=O)O)N2C(=O)[C@@H](NC(=O)[C@H](N)C3=CCC=CC3)[C@H]2SC1", "relative growth": "inactive: 1.03"},
      {"compound": "N=C(N)N1CCc2ccccc2C1.O=S(=O)(O)O", "relative growth": "inactive: 1.02"},
      {"compound": "COc1ccc(NC(=O)Nc2ccc3c(c2)C(=O)N([C@H](C)CO)C[C@H](C)[C@H](CN(C)Cc2ccc(Cl)c(Cl)c2)OCCCC[C@@H](C)O3)cc1", "relative growth": "inactive: 0.999"},
      {"compound": "CC(C)OC(=O)c1cn(Cc2c(F)cccc2F)c2sc(-c3ccc(NC(=O)C(C)C)cc3)c(CN(C)Cc3ccccc3)c2c1=O", "relative growth": "inactive: 1.02"},
      {"compound": "COc1cccc(NC(=O)N(C)C[C@H]2Oc3cc(Br)ccc3S(=O)(=O)N([C@H](C)CO)C[C@H]2C)c1", "relative growth": "inactive: 0.97"},
      {"compound": "C[C@@H]1CCCCO[C@@H](CN(C)Cc2ccc(C(=O)O)cc2)[C@H](C)CN([C@@H](C)CO)C(=O)c2cc(NS(=O)(=O)c3ccccc3)ccc2O1", "relative growth": "inactive: 1.04"},
      {"compound": "C[C@@H]1CN([C@@H](C)CO)C(=O)c2cccc(NC(=O)c3nc4ccccc4s3)c2O[C@H]1CN(C)C(=O)Nc1cccc2ccccc12", "relative growth": "inactive: 0.957"},
      {"compound": "COc1ccc(S(=O)(=O)N(C)C[C@@H]2Oc3ccc(NS(=O)(=O)c4c(C)noc4C)cc3C(=O)N([C@@H](C)CO)C[C@@H]2C)cc1", "relative growth": "inactive: 1.02"},
      {"compound": "O=P(O)(O)CN1CCN(CP(=O)(O)O)CCN(CP(=O)(O)O)CCN(CP(=O)(O)O)CC1", "relative growth": "inactive: 1.05"},
      {"compound": "COc1ccc(S(=O)(=O)N(C)C[C@@H]2OCCCC[C@H](C)Oc3ccc(NS(=O)(=O)c4ccc(Cl)cc4)cc3C(=O)N([C@@H](C)CO)C[C@H]2C)cc1", "relative growth": "inactive: 1.03"},
      {"compound": "Cc1ccc(S(=O)(=O)Nc2ccc3c(c2)C(=O)N([C@@H](C)CO)C[C@@H](C)[C@H](CN(C)Cc2ccc(-c4ccccc4)cc2)O3)cc1", "relative growth": "inactive: 0.978"}
    ]}
  ]
}
